In all, about 310,000 compounds went through this assay and about 14,000 (4.5%) showed an effect of 50% or more. The effect is printed as a negative number. This is one part of the list.
Biological target: human ether-à-go-go-related gene (hERG) potassium channel (human, UniProt Q12809)
Test: primary screen, population patch clamp on CHO cells stably expressing hERG
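Further: peak tail current of the secondary pulse compared with the same well before compound.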

human ether-à-go-go-related gene (hERG) potassium channel, sequence (Q12809 whole entry, looked up): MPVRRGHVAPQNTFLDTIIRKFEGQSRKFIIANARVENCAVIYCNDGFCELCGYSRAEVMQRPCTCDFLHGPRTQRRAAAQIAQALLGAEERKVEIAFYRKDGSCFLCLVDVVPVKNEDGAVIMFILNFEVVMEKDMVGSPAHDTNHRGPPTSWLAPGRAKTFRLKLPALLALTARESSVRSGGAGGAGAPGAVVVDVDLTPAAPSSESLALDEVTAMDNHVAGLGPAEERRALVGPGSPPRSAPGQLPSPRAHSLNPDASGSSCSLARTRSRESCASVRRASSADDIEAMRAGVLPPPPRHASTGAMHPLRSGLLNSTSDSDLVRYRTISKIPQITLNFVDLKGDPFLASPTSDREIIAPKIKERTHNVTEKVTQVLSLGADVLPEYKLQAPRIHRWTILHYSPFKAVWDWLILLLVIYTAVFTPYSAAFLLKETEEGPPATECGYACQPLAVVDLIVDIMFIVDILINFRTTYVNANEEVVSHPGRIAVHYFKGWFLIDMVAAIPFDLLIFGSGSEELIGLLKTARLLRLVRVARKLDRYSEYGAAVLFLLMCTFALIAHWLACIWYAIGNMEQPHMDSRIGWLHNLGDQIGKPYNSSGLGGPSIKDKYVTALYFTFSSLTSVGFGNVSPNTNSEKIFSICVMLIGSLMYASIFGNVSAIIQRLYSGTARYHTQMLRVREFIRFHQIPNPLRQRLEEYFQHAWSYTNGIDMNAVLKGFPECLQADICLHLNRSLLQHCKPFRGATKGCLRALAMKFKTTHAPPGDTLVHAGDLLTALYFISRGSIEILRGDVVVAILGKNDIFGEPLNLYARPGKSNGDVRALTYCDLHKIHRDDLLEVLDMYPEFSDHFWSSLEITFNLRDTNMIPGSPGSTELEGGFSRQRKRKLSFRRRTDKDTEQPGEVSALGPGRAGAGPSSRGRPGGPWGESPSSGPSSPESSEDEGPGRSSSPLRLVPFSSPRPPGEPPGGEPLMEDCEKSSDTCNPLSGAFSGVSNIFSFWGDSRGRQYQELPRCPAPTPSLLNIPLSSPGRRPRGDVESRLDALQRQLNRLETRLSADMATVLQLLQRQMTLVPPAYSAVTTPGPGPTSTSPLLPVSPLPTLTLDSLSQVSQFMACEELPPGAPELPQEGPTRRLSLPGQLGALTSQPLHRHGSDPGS

SMILES	hERG current change (%, negative = inhibition) at 10uM [%]
Cc1ccc(C)c(N2CCN(C3CCCC(C)C3)CC2)c1 (stereo not shown)	-30.6
O=C(Nc1cccc(Cl)c1)c1ccc(NC2=NC3CS(=O)(=O)CC3S2)cc1 (stereo not shown)	2.64
CCN(CCO)C(=O)C12CCC(C)(C(=O)C1)C2(C)C (stereo not shown)	-9.66
O=C(COc1cc2oc(=O)cc(-c3ccccc3)c2cc1Cl)NCc1ccccn1	-1.74
CCCCNC(=O)[C@@](CC)(ONc1ccccc1C(F)(F)F)c1cccc2ccccc12	6.14
CC(=O)N1c2ccc(S(=O)(=O)NCC3CCC(C(=O)N4CCCCC4)CC3)cc2CC1C (stereo not shown)	12.2
COc1ccccc1NC(=O)CC(=O)CSc1nnc(-c2ccc(C)cc2)n1C	-14.4
COc1cc(NC(=O)CN(c2ccc(C)cc2)S(=O)(=O)c2c(C)nn(C)c2C)cc(OC)c1	-5.35
Cc1oc2c(c(C)cc3oc(=O)c(CC(=O)NCCCN4CCCC4=O)c(C)c32)c1C	-0.519
Cc1cccc(CCNC(=O)CNS(=O)(=O)c2ccc3nc(C)sc3c2)c1	-12
CC(=O)c1sc(Nc2nc(C)cc(C)n2)nc1C	-6.22
CN(C)c1ccc(/C=N/NC(=O)c2ccc(Cn3cc(Br)cn3)o2)cc1	-46.1
CCOC(=O)C1=NN(c2cccc(C)c2)C2(S1)SC(C(C)=O)=C(C)N2c1ccccc1 (stereo not shown)	8.94
CCOC(=O)c1ccc(N=C(c2ccccc2)c2c(O)n(C)c(=O)n(C)c2=O)cc1	7.79
COC(=O)CN1C(=S)N(c2ccc(Cl)cc2)C(=O)C1CC(=O)Nc1ccc(Cl)cc1 (stereo not shown)	5.84
O=C(CCNS(=O)(=O)c1ccc(Cl)cc1)NCc1cccs1	6.1
COc1ccc(C)cc1Nc1n[n+](-c2ccccc2)c(-c2ccc(SC)cc2)s1.[Cl-]	-1.4
O=C(CCCc1ccccc1)NC12CC3CC(CC(C3)C1)C2	-1.26
CC1CCN(C(=O)c2[nH]cnc2C(=O)N2CCN(c3ccccc3)CC2)CC1	14.2
CCCCn1nnnc1NCc1cc(OC)c(OC)cc1OC	0.567
CCCCN1C(=O)C2C(C(=O)Nc3cccc(OC)c3)C3C=CC2(O3)C1C(=O)NC1CCCCC1C (stereo not shown)	0.947
Cc1ccccc1C(=O)N1CCN(c2ncccn2)CC1	16.8

SMILES	hERG current change (%, negative = inhibition) at 10uM [%]
CC(C)(C)OC(=O)N1CCC(C(=O)N[C@@H](Cc2c[nH]c3ccccc23)C(=O)O)CC1	24
Cl.OC(COCc1ccccc1)CN1CCc2ccccc2C1 (stereo not shown)	-25.7
CC(C)Sc1nnc([C@@H](N)Cc2c[nH]c3ccccc23)o1.Cl	5.51
c1ccc2c(c1)CNc1ccccc1C2	0.828
COc1ccc(CCNC(=O)C(=O)NCCC2CCCCN2S(=O)(=O)c2cccs2)cc1 (stereo not shown)	-19.1
CCOc1cc(C(=O)N2CCc3cc(OC)c(OC)cc3C2)ccc1OC(F)F	-35.7
CCSC(SCC)[C@H](O)[C@@H](O)[C@H](O)[C@H](O)CO	-6.03
C=CCn1c(COc2ccc(F)cc2)nnc1SCC(=O)NC1CCCC1	-27.5
CCCC(=O)Nc1ccc(NC(=O)c2ccccn2)cn1	-8.57
C/C(Cc1ccccc1)=N\NC(=O)CNC(=O)c1ccc(Cl)cc1	-13.5
COc1ccc(S(=O)(=O)NCC2CCCN(C(=O)CN3CCCCC3)C2)cc1 (stereo not shown)	13.3
Cc1nc(-c2ccccn2)sc1C(=O)O	16.7
CC(=O)c1ccc(NC(=O)/C(Cl)=C/c2ccccc2)cc1	18.5
CCOC(=O)c1c(NC(=O)C2C3C=CC(CC3)C2C(=O)O)sc(C)c1CC (stereo not shown)	-2.01
Cc1ccc(CN(c2ccc(C(=O)NCC3CCCO3)cc2)S(C)(=O)=O)cc1 (stereo not shown)	1.91
Cc1ccc(NC2=NC(C(=O)Nc3ccc(C)c(C)c3)CC(=O)N2)cc1 (stereo not shown)	-8.08
CN1CCN(C(=O)c2cccn(Cc3cccc(Cl)c3)c2=O)CC1	23
CC(=O)Nc1ccc(C(=O)N/N=C/c2cc(Br)cc(Br)c2O)cc1	12.4
COc1ccc(-c2nc(/C=C3\C(C)=Nc4ccccc43)c(O)o2)cc1	6.27
CN1CCc2nc3sc(C(=O)C45CC6CC(CC(C6)C4)C5)c(N)c3cc2C1	-12.7
O=C(Nc1ccsc1C(=O)O)c1ccc(Cl)cc1	27.9
COc1cc(CC(=O)OCC(=O)N2CCCCC2C)cc(OC)c1OC (stereo not shown)	6.28

SMILES	hERG current change (%, negative = inhibition) at 10uM [%]
CN(Cc1ccccc1)C(=O)COC(=O)c1ccccc1Nc1ccccc1	13
CN(C)c1[nH]c(=O)c(C#N)c2c1CCN2Cc1ccccc1	1.46
CCN1C(=O)NC(=O)/C(=C\c2cn(CC(=O)N3CCCCC3C)c3ccccc23)C1=O (stereo not shown)	4.42
COc1cccc(-c2noc(-c3cccnc3)n2)c1	3.69
COc1ccccc1-c1ccc(=O)n(CC(=O)Nc2ccc(C(=O)N3CCCC3)cc2)n1	-27.6
C[C@H](NC(=O)c1nc[nH]c1C(=O)NCCCCC[NH3+])C(=O)OC(C)(C)C.[Cl-]	12.8
CCOc1ccc(N2C(=O)CC(NCc3ccc(F)cc3)C2=O)cc1 (stereo not shown)	-19.4
CC1(C)Cc2c(sc(NC(=O)COc3ccc(Cl)cc3)c2C#N)C(C)(C)N1	-9.35
CCOc1ccc(S(=O)(=O)N2CCN(CC)CC2)cc1NC(=O)c1ccccc1F	-16.6
Cc1cc(C)c(OCCNC(=O)c2ccccc2Sc2ccccc2C#N)c(C)c1	6.79
O=C(NCc1ccncc1)C(F)(F)C(F)(F)C(=O)NCc1ccncc1	-2.17
COC(OC)c1ccc(C#N)c(SCc2ccc(C)cc2)n1	-12.6
CC(C)Cc1ccc(C(C)C(=O)O)cc1 (stereo not shown)	-4.56
C/C=C(\C)C(=O)NNC(=O)c1sc(-c2ccccc2)nc1C	16
Cc1ccc(NC(=O)c2oc3c(c2C)C(=O)CC(C)(C)C3)cc1	4.24
CC(C)c1ccc(OCC(=O)NNC(=S)NC(=O)C2CC2)cc1	17.9
CCOC(=O)C1(CCOc2ccccc2)CCN(Cc2cccc(F)c2)CC1	-65.4
COc1cc(COCC(O)CN2CCCCC2C)cc(OC)c1OC.Cl (stereo not shown)	20.6
CC(C)n1nnnc1-c1ccc(Cl)cc1	6.37
O=C1/C(=C/c2ccccn2)SC(=S)N1Cc1ccccc1	5.91
Cc1cc(C)nc(SCC(=O)OCN2C(=O)c3ccccc3C2=O)n1	-8.92
CC(=O)Nc1ccc(N/C=C2/CCCC2=O)cc1	5.74

SMILES	hERG current change (%, negative = inhibition) at 10uM [%]
CN1CCN(S(=O)(=O)c2ccc(N3CCN(C(c4ccccc4)c4ccccc4)CC3)nc2)CC1	16.9
CC1CCCCN1C(=S)Nc1ccc(OC(F)F)cc1 (stereo not shown)	-40.1
C/C(=N\NC(=O)C(N)=O)c1ccc2c(c1)OCCO2	9.05
Cc1cccc(NC(=O)c2cnc3scc(C)n3c2=O)c1	2.46
C=CCn1c(P(=O)(O)c2ccccc2)nc2ccccc21	11.8
CC1(C)C2CCC1(CS(=O)(=O)N1CCCc3ccccc31)C(=O)C2 (stereo not shown)	-6.26
CC(C)C(OC(=O)C1=Cc2ccccc2OC1)C(=O)NC1CCCC1 (stereo not shown)	11.1
CC1CCC2(CC1)NC(=O)N(CC(=O)NCc1ccc(F)cc1)C2=O (stereo not shown)	-21.2
COC(=O)C(O)(c1ccc(N(C)C(=O)c2cccs2)cc1)C(F)(F)F (stereo not shown)	9.51
COc1ccc(Nc2oc(-c3ccccc3Cl)nc2C#N)cc1	2
FC(F)=C(F)CCSc1ncn[nH]1	18.3
Cc1cc(NC(=O)C2CC2)ccc1NC(=O)c1cccs1	10.4
CCN(c1ccccc1)S(=O)(=O)c1ccc(C(=O)Oc2ccc(C(C)=O)cc2)cc1	8.41
COc1ccc(C(CC(=O)c2ccc(O)cc2)S(=O)(=O)c2ccc(C)cc2)cc1 (stereo not shown)	-4.95
COc1ccc(NC(=O)COC(=O)c2ccc(C)c(S(=O)(=O)N3CCCCC3)c2)cc1	-15.5
S=C1NC2(CCCC2)Nc2ccccc21	3.67
Oc1c(Br)cc(Br)cc1/C=N/n1c(-c2ccccc2)n[nH]c1=S	17.6
COc1ccc(N2CCN(S(=O)(=O)CC34CCC(CC3=O)C4(C)C)CC2)cc1 (stereo not shown)	20.7
COc1ccc(C)cc1NC(=O)C(OC(=O)c1cccc(S(=O)(=O)N(C)c2ccccc2)c1)c1ccccc1 (stereo not shown)	15.1
Cc1ccc(S(=O)(=O)N2CCC(C(=O)NNC(=O)c3ccc(F)cc3)CC2)cc1	11.2
O=C(CSc1nc2ccccc2c(=O)n1-c1ccc(OC(F)F)cc1)NC1CC1	-13.8
O=C1C=C(N2CCOCC2)C2(CCCCC2)O1	17.8
